This note sets out measurements from a collection of fitness landscapes (doi:10.1016/j.celrep.2020.107928).

Over roughly 81,000 sequences, “one-hybrid fitness for binding NBS DNA” has its median near -0.1; the highest 2% begin near 0.36. This is one part of the list. Where only a bound is given, the exact number is not on record here.

Sequences and labels used below:
B1: Caulobacter ParB omega fusion; a variant is named by its letters at X, in order, B8GW30 (parent)
chain: MESVVVGEPGMSEGRRGLGRGLSALLGEVDAAPAQAPGEQLGGSREAPIEILQRNPDQPRRTFREEDLEDLSNSIREKGVLQPILVRPSPDTAGEYQIVAGERAWRAAQRAGLKTVPIMVRELDDLAVLEIGIIENVQRADLNVLEEALSYKVLMEKFERTQENIAQTIGKSXSHVANXMRLLXLPDEVQSYLVSGELTAXHARAIAAAADPVALAKQIIEGGLSVRETEALARKAPNLSAGKSKGGRPPRVKDTDTQALESDLSSVLGLDVSIDHRGSTGTLTITYATLEQLDDLCNRLTRGI

The variants in this assay derive from B1. Kind of assay: one-hybrid fitness for binding NBS DNA (the Noc-binding site; scaled: cognate 1, non-cognate 0); higher = stronger binding. Conditions: with NBS DNA site. The gist of the method:
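In E. coli USO, a HIS3 reporter with its site placed 19 bp from the promoter was used to select Caulobacter ParB variants randomised at four specificity codons. Growth lasted 48 hours at 37°C on histidine-free M9 containing 0.1 mM IPTG and 5 mM 3-AT. Fitness was taken as the log change in variant-to-wild-type read ratio from Illumina sequencing of pre- and post-selection plasmids, rescaled between the non-cognate and cognate sites.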
In the case of DYRI, the “one-hybrid fitness for binding NBS DNA” value is ≤ 0.2.
Then EYPR, with ≤ 0.2; and HAIC, with ≤ 0.2; and AFSF, with ≤ 0.2.
Then FKRW, with ≤ 0.2; and EPCT, with ≤ 0.2; and PHAS, with ≤ 0.2.
Then PHHS, with ≤ 0.2.
In the case of PNIG, the “one-hybrid fitness for binding NBS DNA” value is ≤ 0.2.
Then LEEY, with ≤ 0.2; and VLTE, with ≤ 0.2; and GIHT, with ≤ 0.2.
For KFWS, the “one-hybrid fitness for binding NBS DNA” value was ≤ 0.2.
The result for QEGP reads ≤ 0.2; that for QRGN, 0.418.
The result for PQWP reads ≤ 0.2; that for YSAV, ≤ 0.2; that for DTLP, ≤ 0.2.
Then HPHA, with ≤ 0.2; and RYAS, with 0.342; and VIVY, with ≤ 0.2.
As to YIPY, the “one-hybrid fitness for binding NBS DNA” value was ≤ 0.2.
Then TWAS, with ≤ 0.2; and RDHN, with ≤ 0.2; and VLGF, with ≤ 0.2.
The result for APIF reads ≤ 0.2; that for DGAS, ≤ 0.2; that for QERM, ≤ 0.2.
Then DMTI, with ≤ 0.2.
For QWRR, the “one-hybrid fitness for binding NBS DNA” value was 0.355.
Then PPCY, with ≤ 0.2.
For NDIR, the “one-hybrid fitness for binding NBS DNA” value was ≤ 0.2.
Then KQKL, with ≤ 0.2.
Then IGEG, with ≤ 0.2; and DWSL, with ≤ 0.2; and TSAI, with ≤ 0.2.
Turning to VECR, the “one-hybrid fitness for binding NBS DNA” value was ≤ 0.2.
Regarding HCRA, the “one-hybrid fitness for binding NBS DNA” value is ≤ 0.2.
Turning to NQYS, the “one-hybrid fitness for binding NBS DNA” value was ≤ 0.2.
Regarding ACAM, the “one-hybrid fitness for binding NBS DNA” value is ≤ 0.2.
Then GMRS, with ≤ 0.2.
Consider ILMR, for which the “one-hybrid fitness for binding NBS DNA” value is ≤ 0.2.
The result for WLKD reads ≤ 0.2.
The result for PNQF reads ≤ 0.2; that for VFAR, ≤ 0.2.
In the case of QYTG, the “one-hybrid fitness for binding NBS DNA” value is ≤ 0.2.
Then NLGG, with ≤ 0.2.
Then YLVG, with ≤ 0.2.
The result for YVQT reads ≤ 0.2; that for PMQC, ≤ 0.2.
Consider LWMR, for which the “one-hybrid fitness for binding NBS DNA” value was ≤ 0.2.
Take MRAT: the “one-hybrid fitness for binding NBS DNA” value is ≤ 0.2.
The result for CELS reads ≤ 0.2; that for GLSK, ≤ 0.2; that for TSCI, ≤ 0.2.
For the variant EAHG, the “one-hybrid fitness for binding NBS DNA” value was ≤ 0.2.
The result for ANVV reads ≤ 0.2; that for DDRC, ≤ 0.2; that for VSDI, ≤ 0.2.
Then PNLA, with ≤ 0.2; and QMMS, with 0.333; and YKTC, with ≤ 0.2.
The result for CLDW reads ≤ 0.2.
In the case of WTSR, the “one-hybrid fitness for binding NBS DNA” value is ≤ 0.2.
The result for VLQT reads ≤ 0.2; that for CYVC, ≤ 0.2; that for PHYK, ≤ 0.2.
Then CSFT, with ≤ 0.2.
The result for LLRP reads ≤ 0.2; that for EVKP, ≤ 0.2.
Turning to AADW, the “one-hybrid fitness for binding NBS DNA” value was ≤ 0.2.
Then RRPT, with 0.694; and YGPY, with ≤ 0.2.
The result for RDAL reads ≤ 0.2; that for MFST, ≤ 0.2; that for ITME, ≤ 0.2.
Then STNF, with ≤ 0.2; and CGKT, with ≤ 0.2; and YGLW, with ≤ 0.2.
In the case of CNCT, the “one-hybrid fitness for binding NBS DNA” value is ≤ 0.2.
Turning to ACTI, the “one-hybrid fitness for binding NBS DNA” value is ≤ 0.2.
In the case of NAWR, the “one-hybrid fitness for binding NBS DNA” value was ≤ 0.2.
The result for CKSC reads ≤ 0.2.
Then VHVS, with ≤ 0.2.
For the variant RLEC, the “one-hybrid fitness for binding NBS DNA” value was ≤ 0.2.
As for QINL, the “one-hybrid fitness for binding NBS DNA” value was ≤ 0.2.
The result for QKFK reads ≤ 0.2.
The result for MKTG reads ≤ 0.2.
The result for VLTF reads ≤ 0.2; that for PKVY, ≤ 0.2; that for LYGL, ≤ 0.2.
As for MESV, the “one-hybrid fitness for binding NBS DNA” value is ≤ 0.2.
The result for RIQM reads ≤ 0.2; that for DKQV, ≤ 0.2.
The result for RMDH reads ≤ 0.2.
The result for VLGD reads ≤ 0.2.
For SSLI, the “one-hybrid fitness for binding NBS DNA” value was ≤ 0.2.
As to TFDM, the “one-hybrid fitness for binding NBS DNA” value was ≤ 0.2.
The result for CCIR reads ≤ 0.2; that for NFTH, ≤ 0.2.
Consider YPHT, for which the “one-hybrid fitness for binding NBS DNA” value was ≤ 0.2.
Then MVRS, with ≤ 0.2.
Then KDAS, with ≤ 0.2.
The result for EYNA reads ≤ 0.2.
As for MVWS, the “one-hybrid fitness for binding NBS DNA” value was ≤ 0.2.
Then MPLS, with ≤ 0.2.
Then SAES, with ≤ 0.2; and TLWH, with ≤ 0.2; and YAST, with ≤ 0.2.
Then YSSP, with ≤ 0.2; and PRMW, with ≤ 0.2; and HCLV, with ≤ 0.2.
In the case of PIKW, the “one-hybrid fitness for binding NBS DNA” value is ≤ 0.2.
As to AMAA, the “one-hybrid fitness for binding NBS DNA” value is ≤ 0.2.
As to STEF, the “one-hybrid fitness for binding NBS DNA” value is ≤ 0.2.
Then TAHY, with ≤ 0.2.
Take QLTR: the “one-hybrid fitness for binding NBS DNA” value is 0.487.
Then KLSW, with ≤ 0.2; and RVPQ, with ≤ 0.2.
Then RLII, with ≤ 0.2; and PHRQ, with ≤ 0.2; and GTNR, with ≤ 0.2.
The result for RCGC reads 0.236; that for TSHR, ≤ 0.2.
Take SKGF: the “one-hybrid fitness for binding NBS DNA” value was ≤ 0.2.
The result for SAPC reads ≤ 0.2; that for WLDT, ≤ 0.2; that for MKSL, ≤ 0.2.
The result for LIKR reads ≤ 0.2; that for SFDE, ≤ 0.2.
The result for TKNG reads ≤ 0.2; that for GLQT, ≤ 0.2; that for GGTR, ≤ 0.2.
In the case of DRKT, the “one-hybrid fitness for binding NBS DNA” value was ≤ 0.2.
The result for DKTR reads ≤ 0.2; that for ILTW, ≤ 0.2.
In the case of NWLT, the “one-hybrid fitness for binding NBS DNA” value was ≤ 0.2.
The result for CMYT reads ≤ 0.2.
Then VVTL, with ≤ 0.2; and RKVW, with ≤ 0.2.
Regarding TRDS, the “one-hybrid fitness for binding NBS DNA” value was ≤ 0.2.
Then RTRW, with ≤ 0.2.
Regarding SGCR, the “one-hybrid fitness for binding NBS DNA” value was ≤ 0.2.
HLQM: the “one-hybrid fitness for binding NBS DNA” value was ≤ 0.2.
Then NTPC, with ≤ 0.2.
Then CTCN, with ≤ 0.2; and RPFG, with ≤ 0.2; and ESLA, with ≤ 0.2.
Turning to RDCS, the “one-hybrid fitness for binding NBS DNA” value was ≤ 0.2.
Then WGYR, with ≤ 0.2.
Then SLHF, with ≤ 0.2; and LWTL, with ≤ 0.2.
In the case of WTLA, the “one-hybrid fitness for binding NBS DNA” value was ≤ 0.2.
